# Assay results: the RNAGym collection of RNA variant scans (doi:10.7554/elife.90254)
# The source gives no read counts; variants with many changes may rest on few reads.
# B1: LINE1-mini (parent)
# chain: GGCAGAGCUCAACACAGCGUGGCAAAGUGGCUGUGGCUAGACUGCC
# Variants of: B1
# Test: self-cleavage, relative activity (ratio to wild type); higher = more cleavage; in vitro, sequencing; the parent is a self-cleaving ribozyme
row,Variant,self-cleavage
1,CGCGGAGCUCAACACAGCGCGGCUAAGUGGCUGAGGAUAGACUGCC [G1C A4G U20C A24U U34A C37A],0.01
2,CGCGGAGCUCAACACAGCGGGGCAAAGUGACUGUGGCUAGAUUGCC [G1C A4G U20G G30A C42U],0.06
3,CGCUGAGGUCAACACAGCGUGGCAAAGUGGCUGUGGCUAGACUGCU [G1C A4U C8G C46U],0.02
4,CGCUGAGCUAAACACAGCGUGGCAAAGUGGCUGUGGCUAGACUGCG [G1C A4U C10A C46G],0.02
5,CGCUGAGCUCAACACAGUGUGUCAAAGUGGCUGUGGCUAGACUGCC [G1C A4U C18U G22U],0.14
6,CGCUGAGCUCAACACACCGUUGCAAAGUGGGUGUGGCUAGACUGCC [G1C A4U G17C G21U C31G],0.01
7,CGCUGAGCUCAACACAGCCUGGCAAAGUGCUUGUGGCUAGACUGCC [G1C A4U G19C G30C C31U],0.02
8,CGCAGCGCUCAACACAGCGUGGCAAAGUGGCUGCGCCUAGACUGGC [G1C A6C U34C G36C C45G],0
9,CGCAGGGCUCAACACAGCGUGGCAUAGUGGCUGUGAUAAGACUGCC [G1C A6G A25U G36A C37U U38A],0.12
10,CGCAGGGUUGAACACAGCGUGGCAAAGUGGAUGUGGCUAGACUGCC [G1C A6G C8U C10G C31A],0.01
11,CGCAGGGCUAAACACAGCGUGACAAAGUGGCUGUGGCUAGACUGCC [G1C A6G C10A G22A],0.04
12,CGCAGGGCUAAACACAGCGUGGCAAAGUGGCUGUGGCGAGCCUGCC [G1C A6G C10A U38G A41C],0.01
13,CGCAGGGCUCAAGACAGCGUGGCAAAGUGGCUGUGGCUAGACUGCC [G1C A6G C13G],0.1
14,CGCAGGGCUCAAUACAGCGUGGCAAAGUGGCUGUGGCUAGACUGCC [G1C A6G C13U],0.08
15,CGCAGGGCUCAACACAGCGUGGCAAAGUGGCUUUGGCUAGACUGCC [G1C A6G G33U],0.03
16,CGCAGGGCUCAACACAGCGUGGCAAAGUGGCUGUUGCUAGACUGCA [G1C A6G G35U C46A],0
17,CGCAGGGCUCAACACAGCGUGGCAAAGUGGCUGUGACUAGACUUCC [G1C A6G G36A G44U],0.03
18,CGCAGGGCACAACACAGCGUGGCAAAUUGGCUGCAGCUAGACUACC [G1C A6G U9A G27U U34C G35A G44A],0.12
19,CGCAGUGCUCUACACAGCGUGGCAAAGUGGAUGUGGCUUGACUGCC [G1C A6U A11U C31A A39U],0.01

row,Variant,self-cleavage
1,CGCAGUGCUCAAUACAGCGUGGCAAAGUCACUGUGGCUAGACUGCC [G1C A6U C13U G29C G30A],0.02
2,CGCAGUGCUCAACAUAGCGUGGCAAAGUGGCUGUGGCUAGACUGCC [G1C A6U C15U],0.1
3,CGCAGUGCUCAACACAGCGUGGCAAAGUGGCUGUGGCUAGACUGAA [G1C A6U C45A C46A],0.06
4,CGCAGUACUCAACAGACCGUUGCAGAGUGACUGUGGCUAGACUGCC [G1C A6U G7A C15G G17C G21U A25G G30A],0.01
5,CGCAGUGCUCAACACAGCGUGGCAAAGUGGCUGUGGCUAGACUUCC [G1C A6U G44U],0.06
6,CGCAGAGCUCCACACAGCGUGGCAAAGUGGCUGUGACUAGACUGCC [G1C A11C G36A],0
7,CGCAGAGCUCGACACAGCGUGGCAAAGUGGGUGUGGCUAGACUGCC [G1C A11G C31G],0
8,CGCAGAGCUCACAACAGCGUGGCAAAGUGGCUGUGGCUGGACUUCC [G1C A12C C13A A39G G44U],0.01
9,CGCAGAGCUCACCACAGCGUGGCAAAGUGGCUGAGGCUAGACUGCC [G1C A12C U34A],0.02
10,CGCAGAGCUCACCACAGCGUGGCAAAGUGGCUGGGGCUAUACUGGC [G1C A12C U34G G40U C45G],0.01
11,CGCAGAGCUCAGCACAGCGUGCCAAAGUGGCUGUGGCUAUACUGCC [G1C A12G G22C G40U],0.01
12,CGCAGAGCUCAGCACAGCGUGUCAAAGUGGCUGUGGCUAGACUGCC [G1C A12G G22U],0
13,CGCAGAGCUCAUUACAGAGUGGCAAAGUGGCUGUGCCUAGACUGCC [G1C A12U C13U C18A G36C],0.01
14,CGCAGAGCUCAUCACAGUGUGGCAAAGCGGCAGUGGUUACACUGCC [G1C A12U C18U U28C U32A C37U G40C],0
15,CGCAGAGCUCAUCACAGCGUGGCAAACUGGCUGUGGCUAGACUGCC [G1C A12U G27C],0.03
16,CGCAGAGCUCAUCACAGCGAGGCAAAGUGGCUGUGGCUAGACUGCC [G1C A12U U20A],0.04
17,CGCAGAGCUCAUCACAGCGGGGCAAAGUGGCUGUGGCUAGACUACC [G1C A12U U20G G44A],0.01
18,CGCAGAGCUCAACCCAGCGUGGCAAGGAGGCUGAGGGUAGACUGCC [G1C A14C A26G U28A U34A C37G],0
19,CGCAGAGCUCAACCCAGCGUUGCAAAGUGGCUGUGGCUAGAGUGCC [G1C A14C G21U C42G],0

row,Variant,self-cleavage
1,CGCAGAGCUCAACGAAGUGUGGCAAAGUGGGUGUGGCUAGACCGCC [G1C A14G C15A C18U C31G U43C],0.02
2,CGCAGAGCUCAACGGAGCGUGGCAAAGUGGCUGUGGCUAGACUGCC [G1C A14G C15G],0
3,CGCAGAGCUCAACGUAGCGUGGCAGAGUGGCUGUGGCUAGACUCCC [G1C A14G C15U A25G G44C],0.01
4,CGCAGAGCUCAACGCAGCGUGGCAAAGUGGCUGUGGCUAGACUGAC [G1C A14G C45A],0.01
5,CGCAGAGCUCAACGCAGCAUGGCAAAGUGGCUGUGGCUGGACUGCC [G1C A14G G19A A39G],0
6,CGCAGAGCUCAACUCAGCCCGGCAAAGUGGCUGUGGCCAGACUGCU [G1C A14U G19C U20C U38C C46U],0.08
7,CGCAGAGCUCAACUCAGCGUGGCAAAGUCGCUGUGGCUAGACUGCC [G1C A14U G29C],0.06
8,CGCAGAGCUCAACACCGCGUCGCACAGUGGCUGUGGCUAGACUGCC [G1C A16C G21C A25C],0.01
9,CGCAGAGCUCAACACCGCGUGGCAAAGUGGCUGUAGCUAGACUGCC [G1C A16C G35A],0.03
10,CGCAGAGCUCAACACCGCGGGGAAAAGUGGCCGUGGCCAGACUGCG [G1C A16C U20G C23A U32C U38C C46G],0
11,CGCAGAGCUCAACACGGGGUGGCAAUGUUGCUGUGGCUAGACUGCU [G1C A16G C18G A26U G29U C46U],0.03
12,CGCAGAGCUCAACACGGCGUGGUAAAGUGACUGUGGCUAGACUGCC [G1C A16G C23U G30A],0.03
13,CGCAGAGCUCAACACUGCGUGGCAAAGUGGCUGUGGAUAGACUGCC [G1C A16U C37A],0.02
14,CGCAGAGCUCAACACUACGUGGCAAAGUGGCUGUGGCUAGACUGCC [G1C A16U G17A],0.02
15,CGCAGAGCUCAACACAGCGUGGCACAGUGGCUUUCGCUAGACUGCC [G1C A25C G33U G35C],0.02
16,CGCAGAGCUCAACACAGCGUGGCAGAGUGGCUAUGGCUAGACUGCC [G1C A25G G33A],0.01
17,CGCAGAGCUCAACACAGCGUGGCAUAGUGUCUGUGGCUAUACUGCC [G1C A25U G30U G40U],0.03
18,CGCAGAGCUCAACACAGCGUGGCAACGUGGCUUUGGCUAAACUGCC [G1C A26C G33U G40A],0.05
